Reference: PubChem BioAssay AID1159614 (National Center for Advancing Translational Sciences (NCATS), 2016)
Screen size: about 45,000 compounds; about 65 (0.1%) were called active. Calls follow the shape of the dose curve; as a rule, active = well fitted activation curve with a large enough effect; inconclusive = small, poorly fitted or top-dose-only effect; inactive = no such curve, though single readings can be large or run the other way. The list shows a part of the results.

Biological target: Galactocerebrosidase (Homo sapiens) (UniProt P54803)
UniProt P54803, sequence (P54803 whole entry, looked up): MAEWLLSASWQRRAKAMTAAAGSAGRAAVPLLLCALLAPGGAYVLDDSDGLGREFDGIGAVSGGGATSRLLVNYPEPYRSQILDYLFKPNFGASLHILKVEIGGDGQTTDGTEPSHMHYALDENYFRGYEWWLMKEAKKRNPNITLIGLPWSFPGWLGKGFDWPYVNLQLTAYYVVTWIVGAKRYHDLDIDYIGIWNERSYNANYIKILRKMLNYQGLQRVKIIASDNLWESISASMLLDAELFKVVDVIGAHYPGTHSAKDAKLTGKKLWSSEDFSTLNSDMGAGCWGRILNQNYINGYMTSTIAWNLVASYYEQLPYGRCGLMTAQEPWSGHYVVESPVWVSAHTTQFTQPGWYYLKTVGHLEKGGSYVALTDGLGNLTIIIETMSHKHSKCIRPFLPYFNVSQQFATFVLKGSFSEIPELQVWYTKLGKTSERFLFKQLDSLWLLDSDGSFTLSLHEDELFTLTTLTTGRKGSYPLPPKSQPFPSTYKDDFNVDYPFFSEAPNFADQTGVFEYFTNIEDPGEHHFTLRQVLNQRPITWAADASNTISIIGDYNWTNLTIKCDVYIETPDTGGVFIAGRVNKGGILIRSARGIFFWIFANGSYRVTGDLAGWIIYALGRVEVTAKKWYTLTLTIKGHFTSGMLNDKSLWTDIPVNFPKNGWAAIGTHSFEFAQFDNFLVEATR
Assay: A Novel Cell-Based Assay to Identify Small Molecules for B -Galactocerebrosidase; also: nearly all actives have a fitted effect of over 65% in size; as to activation: 0% is about no effect
Details: 145M-Twi-hGALC-G270D cells (Twitcher mouse brain line with human GALC G270D), HMU-beta-Gal fluorescence, 48 h; series mostly up to 57.5 µM; activation: at the top concentration
Method in brief: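 Mutant human GALC (G270D), stably expressed in a Twitcher mouse brain cell line lacking endogenous GALC, is measured in live-treated cells via 6-hexadecanoylamino-4-methylumbelliferyl-β-galactoside hydrolysis (0.1 mM final, pH 5.2) with fluorescent detection.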
Potency is read from the fitted curve at half-maximal effect.

Structure (SMILES) | activation | Potency
CCOc1ccccc1NC(=O)Cn1c(=O)n(-c2ccc(Cl)cc2)c(=O)c2oc3ccccc3c21 | inactive: -6.38% | 
COc1ccc(N2CCN(C(CNC(=O)c3c(F)cccc3F)c3ccc4c(c3)OCO4)CC2)cc1 (stereo unspecified) | inactive: -12.2% | 
CCOC(=O)c1cc2c(=O)n3ccccc3nc2n(CC2CCCO2)c1=NC(=O)c1ccccc1OCC (stereo unspecified) | inactive: -5.67% | 
Cc1ccc(CNC(=O)C2CCCN(c3nn4cc(-c5ccc(C)cc5)nc4s3)C2)cc1 (stereo unspecified) | inactive: -8.98% | 
Cc1ccc(-n2c(=O)c3ccc(C(=O)NCc4ccccc4Cl)cc3n(Cc3cccc(F)c3)c2=O)cc1 | inactive: -8.84% | 
COCCn1c(SCc2ccccc2F)nc2c([nH]c3ccccc32)c1=O | inactive: -27.3% | 
CCOc1ccc(-n2cc(-c3ccccc3)c3c(NCc4ccccc4)ncnc32)cc1 | inactive: -5.4% | 
COC(=O)Cc1c(C)c2ccc3c(c2oc1=O)CN(Cc1ccc(Cl)cc1)CO3 |  | active: 25.1 µM
CCCSc1ncc(Cl)c(C(=O)Nc2ccc(S(=O)(=O)N3CCCCC3C)cc2)n1 (stereo unspecified) | inactive: -11.6% | 
COc1ccc(NC(=O)CCn2cnnn2)cc1 | inactive: -6.94% | 
COc1cccc(NC(=O)C2CC(=O)N(c3ccc(Br)cc3)C2)c1 (stereo unspecified) | inactive: -6.27% | 
Cc1ccc(NS(=O)(=O)c2cn(C)c(C)n2)c(Br)c1 | inactive: -15.5% | 
COc1ccc(CNC(=O)C2CCN(S(=O)(=O)N3CCC(C)CC3)CC2)c(OC)c1 | inactive: -12.5% | 
COc1cc(CN(C(=O)c2ccc(C)cc2)C2CCS(=O)(=O)C2)cc(OC)c1OC (stereo unspecified) | inactive: -11.5% | 
Cc1cccc(CNC(=O)c2ccc(Cn3c(SCc4cccc(F)c4)nc4cccnc43)cc2)c1 | inactive: 6.61% | 
CCC1CN(CC(=O)NCc2cccc(Br)c2)c2ccccc2S1 (stereo unspecified) | inactive: -6.14% | 
COc1ccc(-c2ccc(CCC(=O)O)n2-c2ccccc2C(F)(F)F)cc1 | inactive: -2.31% | 
Cc1ccc(S(=O)(=O)c2cn(CC(=O)Nc3ccc4c(c3)OCO4)c3ccc(C)cc3c2=O)cc1 | inactive: -12.7% | 
COc1ccc(-c2nc3ccccc3o2)cc1NC(=O)c1cc([N+](=O)[O-])ccc1N1CCOCC1 | inactive: -10.2% | 
Cc1ccccc1OCc1nnc(SCc2cc(=O)c3cc(F)ccc3[nH]2)n1C | inactive: -2.43% | 
Cc1ccc2c(c1)c1c(c(=O)n(Cc3ccccc3)c(=O)n1Cc1cccc(F)c1)n2C | inactive: -7.43% | 
N#C/C(=C\c1cccc(F)c1)c1nc(-c2cc3ccccc3oc2=O)cs1 | inactive: -11.4% | 
CCOC(=O)CN(Cc1ccccc1)C(C(=O)NC1CCCCC1)c1ccccc1 (stereo unspecified) | inactive: -8.25% | 
CCc1ccc(N2CC(C)Cn3c2nc2c3c(=O)n(CC(=O)O)c(=O)n2C)cc1 (stereo unspecified) | inactive: -13.9% | 

Structure (SMILES) | activation | Potency
CC(Oc1ccccc1)C(=O)Nc1ccccc1C(=O)OCc1cc(=O)n2nc(C3CC3)sc2n1 (stereo unspecified) | inactive: -12.3% | 
CCc1nnc(SCC(=O)Nc2ccc(OC)c(OC)c2)c2cc3occc3n12 | inactive: -7.59% | 
Cc1c(Nc2ncccc2C(=O)O)cccc1C(F)(F)F | inactive: -14.3% | 
CCOc1ccc(-c2cc(C)n3nc(C(=O)Nc4ccc(C)c(C)c4)cc3n2)cc1 | inactive: -12.1% | 
CC[C@H](c1ccc(O)cc1)[C@@H](CC)c1ccc(O)cc1 | inactive: -20.4% | 
COC(=O)Cc1c(C)nc2nc(NCc3ccc(Br)cc3)[nH]n2c1=O | inactive: -15.5% | 
Cc1ccc(NC(=O)CCC(=O)N2CCSc3ccccc32)cc1 | inactive: -6.63% | 
COc1cccc(C(=O)Nc2cccc(OCc3cc(=O)n4cccc(C)c4n3)c2)c1 | inactive: 21.1% | 
CCCCNC(=O)CC1N=C2c3ccccc3N=C(SCC(=O)NCc3ccccc3Cl)N2C1=O (stereo unspecified) | inactive: -11.6% | 
Cc1cnc2c(c1SCC(=O)NCc1ccccc1Cl)c(=O)n(C)c(=O)n2C | inactive: -2.99% | 
CC(C)(Oc1ccc(Cl)cc1)C(=O)Nc1nnc2n1CCS2 | inactive: -0.251% | 
Cc1ccn2c(Nc3ccccc3C)c(-c3cccnc3)nc2c1 | inactive: -5.55% | 
CCOc1ccc(NC(=O)Cn2cc(C(=O)c3ccccc3)c(=O)c3cc4c(cc32)OCCO4)cc1 | inactive: -28.3% | 
CCc1ccccc1Nc1cc(C(=O)NCCCN(C)C2CCCCC2)c2ccccc2n1 | inactive: 2.1% | 
O=C(COc1ccccc1)Nc1nnc(SCc2cc(=O)c3ccccc3[nH]2)s1 | inactive: 1.09% | 
Clc1ccc(-c2noc(-c3cccnc3N3CCN(c4ccccc4)CC3)n2)cc1 | inactive: 15% | 
Cc1ccc(C)c(N2CCN(C(=O)c3nn(C)c4c3CS(=O)(=O)c3ccccc3-4)CC2)c1 | inactive: -14.7% | 
Cc1ccc(C2c3[nH]c4ccccc4c3CCN2C(=O)CCc2ccccc2)cc1 (stereo unspecified) | inactive: 0.162% | 
CCN(C(=O)CSc1nc2ccccc2n1CC(=O)N1CCCC(C)C1)c1ccccc1 (stereo unspecified) | inactive: 1.58% | 
O=C(CC(NCc1cccnc1)C(=O)O)Nc1ccc(O)cc1 (stereo unspecified) | inactive: 9.67% | 
CCOc1ccc(CCNC(=O)C2CCN(Cc3nc(-c4ccccc4C)oc3C)CC2)cc1OCC | inactive: -1.53% | 
Cn1c(=O)c(=O)n(C)c2cc(S(=O)(=O)Nc3ccc(Cl)c(C(F)(F)F)c3)ccc21 | inactive: -8.35% | 
Fc1ccc(Nc2c(-c3ccco3)nc3ccccn23)cc1 | inactive: -10.6% | 
COc1cc(OC)c(NC(=O)Cn2cnc3nc4c(cc3c2=O)CCCC4)cc1Cl | inactive: -9.18% | 

Structure (SMILES) | activation | Potency
Clc1ccc(-c2nnn3c2nc(NCc2ccc4c(c2)OCO4)c2ccccc23)cc1 | inactive: -8.21% | 
Cc1cc(=O)oc2cc(OCC(=O)Nc3c(C(C)C)cccc3C(C)C)ccc12 | inactive: -15.9% | 
Cc1ccc(NC(=O)C2CCC(CNS(=O)(=O)c3ccc4c(c3)C(C)(C)C(=O)N4C)CC2)cc1 (stereo unspecified) | inactive: -0.232% | 
CC(C)(C)c1ccc(C(=O)N2CCN(Cc3cc(=O)n4nc(-c5ccccc5F)sc4n3)CC2)cc1 | inactive: -7.98% | 
CCOc1ccc(CNC(=O)Cc2ccc(NC(=O)N3CCCCc4ccccc43)cc2)cc1OC | inactive: -6.92% | 
O=C(CCCCCn1c(=O)[nH]c2ccccc2c1=O)NCc1ccc(Cl)cc1 | inactive: -7.21% | 
CCC(=O)N1CCc2cc(Br)cc(S(=O)(=O)NCc3ccccc3)c21 | inactive: 3.25% | 
CCCc1cc(N2CCN(c3ccc(OC)cc3)CC2)n2cnnc2n1 | inactive: -6.75% | 
COc1ccc(CCn2c(=O)c3cccnc3n(CC(=O)Nc3c(C)cc(C)cc3C)c2=O)cc1OC | inactive: -7.74% | 
COc1cc(NC(=O)CCNC(=O)Cn2cnc3ccccc3c2=O)cc(OC)c1OC | inactive: -9.27% | 
Cc1cc(C)c(NC(=O)Nc2csc3c2CCCC3)c(C)c1 | inactive: -26% | 
Cc1sc2ncn(CC(=O)N(C)c3cccc(C(F)(F)F)c3)c(=O)c2c1S(=O)(=O)N1CCN(c2ncccn2)CC1 | inactive: -4.33% | 
CCN(CC)C(=O)COc1ccc(-c2nnc(Nc3ccc(OC)c(C(=O)NC)c3)c3ccccc23)cc1 | inactive: -19.8% | 
Fc1ccc(-n2ncc3c(N4CCN(c5ccccc5F)CC4)ncnc32)cc1 | inactive: 10.6% | 
COc1ccccc1-c1nc(SCC(=O)Nc2ccc(C)c(C)c2)n[nH]1 | inactive: -19.8% | 
CSc1ccc(CCNC(=O)C2CCN(c3ncnc4c3nc3n4CCCCC3)CC2)cc1 | inactive: -12.9% | 
O=C(CCn1ccc2cc(S(=O)(=O)N3CCCC3)ccc21)NCc1ccccc1Cl | inactive: -14.5% | 
CCc1nn2c(=O)cc(COC(=O)c3ccccc3NC(=O)c3cccs3)nc2s1 | inactive: -26% | 
CCn1nc(C)c2c(-c3ccccc3)cc(=O)n(C(C)C(=O)NCCc3ccccc3)c21 (stereo unspecified) | inactive: -9.11% | 
Cc1cc(=O)oc2c3c(ccc12)OCN(Cc1ccc(Cl)cc1)C3 | inactive: -5.65% | 
CCC1CCCCN1C(=O)Cn1c(=O)n(CCCCCC(=O)NCc2ccccc2Cl)c(=O)c2sccc21 (stereo unspecified) | inactive: -19% | 
COc1cccc(-c2nnc3sc(CN4CCCCC4)cn23)c1 | inactive: -15.5% | 
Cc1cccc(CCNC(=O)c2c[nH]c3ccc(S(=O)(=O)Nc4ccccc4F)cc3c2=O)c1 | inactive: 4.87% | 
O=C(NCCc1ccc(Cl)cc1)c1ccc2c(c1)N(Cc1cccc(Cl)c1)C(=O)c1ccccc1S2(=O)=O | inactive: -9.46% | 

Structure (SMILES) | activation | Potency
Fc1ccccc1Nc1ncnc2c1nc1n2CCCCC1 | inactive: -14.5% | 
Cc1cccc(CN2C(=O)c3ccccc3Sc3ccc(C(=O)NCc4cccs4)cc32)c1 | inactive: -7.7% | 
CCOC(=O)N1CCc2c(sc3c2c(=O)n(-c2ccc(F)cc2)c(=O)n3CC(=O)c2ccccc2)C1 | inactive: -9.38% | 
O=C(NCCc1ccccc1)C1COc2ccccc2C1 (stereo unspecified) | inactive: -23.1% | 
CCOC(=O)c1c(NC(=O)c2cc3ccccc3c(=O)o2)sc2c1CCC(C(C)(C)C)C2 (stereo unspecified) | inactive: -2.34% | 
Cc1cc(=O)n(CC(=O)NC(C)c2ccccc2)c2c1c(C)nn2C (stereo unspecified) | inactive: -38.4% | 
CCc1ccc(NC(=O)c2cc(C)nn2-c2ccccc2)cc1 | inactive: -14.5% | 
CCOC(=O)c1c(C)n(-c2ccccc2)c2ccc(OC(=O)c3cc(OC)cc(OC)c3)cc12 | inactive: -12.6% | 
CCCNc1nc2c(c(=O)n(C)c(=O)n2C)n1CC(O)COc1ccccc1 (stereo unspecified) | inactive: -5.04% | 
COc1ccc(NC(=O)c2oc3ccccc3c2NC(=O)COc2ccc(F)cc2)c(OC)c1 | inactive: -16.2% | 
Cn1c(=O)n(C)c2cc(NS(=O)(=O)c3ccc(C(C)(C)C)cc3)c(NCc3ccccc3)cc21 | inactive: -16.2% | 
Cc1cccc(C(=O)Nc2nnc(S(=O)(=O)N3CCCc4ccccc43)s2)c1 | inactive: -12.8% | 
Cc1ccc(NC(=O)Cn2cc(C(=O)C3CCCCC3)c3ccccc32)c(C)c1 | inactive: -17% | 
CCOc1ccc(NC(=O)CCNS(=O)(=O)c2cccc3nsnc23)cc1 | inactive: -11% | 
CCS(=O)(=O)N1CCc2cc(C(=O)Nc3cc(OC)c(Cl)cc3OC)ccc21 | inactive: -2.21% | 
CCOc1ccc(C(=O)Nc2ccc3oc(-c4ccncc4)nc3c2)cc1 | inactive: -17.8% | 
Cc1ccc(Nc2nc(C)c(NC(=O)c3ccc(C)cc3)c(Nc3ccc(C)cc3)n2)cc1 | inactive: -16.3% | 
CCC(=O)Nc1cc(-c2nc3ccccc3s2)c(Cl)cc1Cl | inactive: -1.75% | 
CCc1cccc(C)c1NC(=O)C(CC)Sc1nncn2c1cc1occc12 (stereo unspecified) | inactive: -7.09% | 
O=C(Cn1ccc2cc(S(=O)(=O)N3CCCC3)ccc21)NCc1ccccc1Cl | inactive: -4.44% | 
CCN1c2ccccc2-c2nc(SCC(=O)Nc3cc(F)ccc3F)ncc2S1(=O)=O | inactive: -14.6% | 
CCC(C(=O)Nc1cccc(C#N)c1)n1nc(-c2ccccc2)ccc1=O (stereo unspecified) | inactive: 2.82% | 
Cc1ccc(NC(=O)CCCn2nc(C)c3sc4ccccc4c3c2=O)c(Cl)c1 | inactive: 5.18% | 
COC(=O)c1ccccc1NC(=O)CSc1nnc2cc(C)c3cc(C)cc(C)c3n12 | inactive: -10.2% | 
